Test results from PubChem BioAssay AID1159614 (National Center for Advancing Translational Sciences (NCATS), 2016).
Among all 45,000 compounds or so, about 65 (0.1%) were called active. Calls follow the shape of the dose curve; as a rule, active = well fitted activation curve with a large enough effect; inconclusive = small, poorly fitted or top-dose-only effect; inactive = no such curve, though single readings can be large or run the other way. The list shows a part of the results.

molecular target: Galactocerebrosidase (Homo sapiens) (UniProt P54803); test: A Novel Cell-Based Assay to Identify Small Molecules for B -Galactocerebrosidase; settings: 145M-Twi-hGALC-G270D cells (Twitcher mouse brain line with human GALC G270D), HMU-beta-Gal fluorescence, 48 h; series mostly up to 57.5 µM; activation: at the top concentration; also: 0% is about no effect; nearly all actives have a fitted effect of over 65% in size
Summary of the method: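 Live 145M-Twi cells (Twitcher mouse brain-derived, GALC-null) stably expressing human GALC-G270D, with a wild-type GALC line, were compound-treated. Residual GALC activity was then read as fluorescence from 0.1 mM final HMU-β-gal at pH 5.2; higher signal means activation.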

UniProt P54803, sequence (P54803 whole entry, looked up): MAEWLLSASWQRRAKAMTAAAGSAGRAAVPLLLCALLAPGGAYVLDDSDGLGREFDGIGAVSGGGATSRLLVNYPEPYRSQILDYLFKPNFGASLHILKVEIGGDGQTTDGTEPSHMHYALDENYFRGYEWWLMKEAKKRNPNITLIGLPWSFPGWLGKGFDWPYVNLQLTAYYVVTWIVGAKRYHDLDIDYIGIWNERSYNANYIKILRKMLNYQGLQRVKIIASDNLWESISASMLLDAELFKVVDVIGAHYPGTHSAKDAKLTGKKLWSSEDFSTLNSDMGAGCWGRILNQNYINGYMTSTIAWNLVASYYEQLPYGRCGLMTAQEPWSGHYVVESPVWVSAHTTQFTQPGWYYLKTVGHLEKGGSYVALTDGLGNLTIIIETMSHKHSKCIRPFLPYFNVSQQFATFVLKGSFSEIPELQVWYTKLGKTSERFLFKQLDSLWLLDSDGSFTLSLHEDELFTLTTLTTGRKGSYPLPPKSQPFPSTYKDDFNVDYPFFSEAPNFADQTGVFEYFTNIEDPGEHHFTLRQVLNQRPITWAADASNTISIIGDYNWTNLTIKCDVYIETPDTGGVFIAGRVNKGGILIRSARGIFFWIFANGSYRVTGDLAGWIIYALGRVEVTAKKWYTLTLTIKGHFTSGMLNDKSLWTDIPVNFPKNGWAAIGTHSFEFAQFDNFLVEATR

activation, inactive:
CCCC12CN3CC(CCC)(CN(C1)C3c1c(C)[nH]c(=O)[nH]c1=O)C2=O (stereo not given) -12.3%, O=C(Nc1ccc(F)cc1F)N1CCN(c2ccc(Cl)c(Cl)c2)CC1 -9.87%, CCc1nn(Cc2c(C)cc(C)cc2C)c(=O)c2cc3cc(C)ccc3n12 -6.75%, Cc1ccc(C2C=C(c3ccc(Cl)cc3)Nc3nc(NC(=O)c4ccco4)nn32)cc1 (stereo not given) -1.9%, CCCCN(C)c1nnc(NC(=O)Nc2ccc(Br)c(C)c2)s1 -23%, Nc1cc(C(Cl)=C(Cl)Cl)c(S(N)(=O)=O)cc1S(N)(=O)=O -8.25%, CCn1cc2nc(SCC(=O)Nc3ccc(OC)cc3OC)n(Cc3ccc(Cl)cc3)c(=O)c2n1 -2.63%, CCOCCc1nn2c(=O)cc(COC(=O)c3ccccc3NC(=O)c3ccc(C)cc3)nc2s1 -4.12%, CCOc1ccc(NC(=O)Cn2cc(C(=O)c3ccc(C)cc3)c(=O)c3cc4c(cc32)OCO4)cc1 -16.1%, CCc1ccc(CN(Cc2ccco2)C(=O)c2cc(-c3ccc(C)c(F)c3)on2)cc1 -15.9%, COc1ccc(CCNC(=O)CCCCn2c(=O)c3ccccc3n(Cc3ccccc3)c2=O)cc1OC -14.9%, Clc1cccc(-n2ncc3c(NC4CCCCCC4)ncnc32)c1 -14.5%, Fc1ccccc1N1CCN(c2ncnc3c2nc2n3CCCC2)CC1 3.96%, CCOC(=O)c1ccc(NC(=O)CSc2ncc(S(=O)(=O)c3ccc(C)c(Cl)c3)c(=O)[nH]2)cc1 -2.67%, CN(C)c1ccc(NC(=O)Cn2cc(S(=O)(=O)Cc3ccccc3Cl)c3ccccc32)cc1 -15.5%, O=C(CNS(=O)(=O)c1cccs1)N1CCN(c2ccccc2F)CC1 -4.62%, CCCn1c(=O)c2sccc2n2c(CCCC(=O)NC3CCCCC3)nnc12 -11.5%, Cc1ccc(F)cc1S(=O)(=O)N1CCC(c2nc3ccccc3s2)CC1 -10.6%, Brc1cccc(-c2nnn3c2nc(N2CCCCC2)c2ccccc23)c1 -4.34%, CCn1c2c(c(=O)n3ncc(C(=O)Nc4ccc(Cl)cc4C)c13)CN(Cc1ccc(OC)cc1)CC2 5.78%, Cc1ccc2nc3c(c(Nc4ccc(C)c(C)c4)c2c1)CCC3 -31.7%, Cc1ccccc1Cn1c(C)c(CNCCCc2ccccc2)c(C(=O)O)c1C -1.7%, Cc1ccccc1Nc1c(-c2c[nH]c3ccccc23)nc2cccc(C)n12 -7.53%, COc1ccc(C2C=C(c3ccc(Cl)cc3)Nc3nc(NC(=O)CCC(=O)O)nn32)cc1 (stereo not given) -7.75%, CCC(C)NC(=O)Cn1c(=O)c2cccn2c2ccc(F)cc21 (stereo not given) -18.9%, CCCOc1cccc(C(=O)N2CCCCC2CCN2CCCCC2)c1 (stereo not given) 1%, O=C(Nc1ccc(F)cc1Cl)c1cnc(N2CCOCC2)c2ccccc12 3.63%, COc1ccc(-c2csc3nc(-c4ccc(C)cc4)oc(=O)c23)cc1OC -12.3%, O=c1c2sc3ccccc3c2n(Cc2ccc(Cl)cc2)c(=O)n1Cc1ccco1 -10.7%, Cc1ccc(NC(=O)CCc2nc3cccnc3n2-c2ccccc2)cc1Cl -20.4%, Cc1ccc(N(Cc2cccs2)C(=O)c2ccccc2[N+](=O)[O-])cc1 10%, COc1ccc(CCN(C)CCCC(C#N)(c2cc(OC)c(OC)c(OC)c2)C(C)C)cc1OC (stereo not given) -6.79%, COc1ccc(CNC(=O)CC2Oc3ccc(C)cc3NC2=O)cc1 (stereo not given) -16.9%, COc1cccc(CNC(=O)c2cc(=O)[nH]c3ccc(S(=O)(=O)N4CCCC4)cc23)c1 3.33%, CCOc1ccc(CCNC(=O)c2nn(C)c3c2CSc2ccc(C)cc2-3)cc1OCC -48%, COc1ccc(CCNc2nc(SCc3cccc(Cl)c3)nc3ccccc23)cc1OC -4.65%, Cc1cccc(Cn2c(CN3CCCC(C)C3)nc3c2c(=O)n(C)c(=O)n3C)c1 (stereo not given) -12.3%, Cc1ccc(S(=O)(=O)N2CCc3cc(C(=O)Nc4c(C)cccc4C(C)C)ccc32)cc1 -12.1%, COC(=O)c1cc2oc3ccccc3c2n1CC(=O)Nc1ccc(F)c(Cl)c1 5.69%, COc1cccc(CC(=O)Nc2ccc3nc(Nc4cccc(C(F)(F)F)c4)cc(C)c3c2)c1 -0.245%, Clc1ccc2nc(-c3cccs3)c(Nc3ccc4c(c3)OCCO4)n2c1 -11.6%, CCOC(=O)c1cc(OC(=O)c2cc(OC)cc(OC)c2)n(-c2ccccc2)n1 -2.78%, Cc1ccc(Cl)cc1NC(=O)Cn1c(SCC(=O)NCc2ccccc2)nc2ccccc21 -19.3%, CCOC(=O)c1c(NC(=O)CSc2cn(CCNC(=O)c3ccc(OCC)cc3)c3ccccc23)sc2c1CCC2 -6.15%, CCc1nonc1NC(=O)c1oc2ccc(Cl)cc2c1C -4.75%, COCCCNC(=O)c1ccc(-n2c(-c3ccccc3)cc3c2CCCCC3)cc1 -15.2%, CC1Cc2cc(S(=O)(=O)NCc3ccccc3)ccc2N1C(=O)C1CCC1 (stereo not given) -17.2%, CC1=C(C(=O)OC2CCCCCC2)C(c2ccc(Cl)cc2Cl)CC(=O)N1 (stereo not given) -4.04%, Cc1ccc(NC(=O)c2cnc3cc(C)ccn3c2=O)c(C)c1 -19.5%, CC1(C)S[C@@H]2[C@H](NC(=O)Cc3ccccc3)C(=O)N2[C@H]1C(=O)O (tested in a mixture with another compound) -25.3%, COc1c2occc2c(OC)c2c(=O)cc(C)oc12 -16.2%, CCCCSc1nc(-c2cccc(OC)c2)nc2c1Cc1c(CO)cnc(C)c1O2 -12.7%, CCc1nonc1NC(=O)c1oc2cc(C)c(C)cc2c1C -24.7%, Cc1ccc(-c2cc(NC(=O)c3cccc(C)c3)on2)cc1 -18.8%, Cc1c(Cl)cccc1NC(=O)c1oc2ccc(S(=O)(=O)N3CCC4(CC3)OCCO4)cc2c1C -8.74%, O=S(=O)(NCc1ccc(F)cc1)c1ccc2[nH]c3c(c2c1)CCCC3 -8.38%, CC(C)C[C@H](NC(=O)CNC(=O)[C@H](Cc1ccc(O)cc1)NC(=O)[C@H](CO)NC(=O)[C@H](Cc1c[nH]c2ccccc12)NC(=O)[C@H](Cc1cnc[nH]1)NC(=O)[C@@H]1CCC(=O)N1)C(=O)N[C@@H](CCCN=C(N)N)C(=O)N1CCC[C@H]1C(=O)NCC(N)=O (stereo in doubt) -10.2%, CCC(=O)Nc1ccc(CC)cc1-c1nc2ccccc2n(CC(=O)c2ccc(OC)cc2)c1=O -25.1%, CC1CCCCN1C(=O)CN1CCSc2ccccc21 (stereo not given) -0.723%, COc1cccc(-n2c(SCC(N)=O)nc3c(oc4ccccc43)c2=O)c1 -1.88%
